Reference: publication PMC6451091
Some of the results follow. For part of these data: At the low end of the ranking the order means little. For part of these data: The protein was read in a cell extract, so binding may be indirect.

Legend:
Conditions in all cases: 20 mM HEPES pH 7.9, 100 mM NaCl, 1 mM DTT, 0.2 mg/mL BSA, 0.02% Triton X-100, 2% milk, 0.4 mg/mL salmon testes DNA; 1 h; temperature not stated; high values mean tight binding; double strand, one strand shown; sequences stand for … in GCCTAGCAC…GTGCTAGGTCTTGATTCGCTTGACGCTGCTG
[1] = target: PU.1 (IVT) (UniProt P17947); assay: protein-binding microarray (PBM)
[2] = target: PU.1 (endogenous, THP-1 nuclear extract) (UniProt P17947); assay: nuclear extract protein-binding microarray (nextPBM)
[3] = target: T1, FLI1 (endogenous, THP-1 nuclear extract) (UniProt Q01543); assay: as above
T1 sequence: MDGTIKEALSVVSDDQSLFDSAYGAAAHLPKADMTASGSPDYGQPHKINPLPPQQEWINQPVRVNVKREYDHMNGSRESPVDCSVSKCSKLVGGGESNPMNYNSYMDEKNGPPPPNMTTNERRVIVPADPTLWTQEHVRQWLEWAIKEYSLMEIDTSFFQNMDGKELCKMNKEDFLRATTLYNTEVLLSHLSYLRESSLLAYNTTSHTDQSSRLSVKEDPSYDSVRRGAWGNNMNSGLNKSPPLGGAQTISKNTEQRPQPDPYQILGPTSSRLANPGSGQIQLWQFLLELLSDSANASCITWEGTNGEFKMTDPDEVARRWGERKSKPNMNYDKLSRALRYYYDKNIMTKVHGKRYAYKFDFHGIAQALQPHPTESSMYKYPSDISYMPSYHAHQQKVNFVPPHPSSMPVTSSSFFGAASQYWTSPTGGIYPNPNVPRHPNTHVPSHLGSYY

GAGATAGGGAAGTGGTAAAT showed a binding signal [1] of 4.55 z-score, a binding signal [2] of 4.7 z-score and a binding signal [3] of 1.78 z-score.
With AGAATGAGGAAATGACAGTC the binding signal [1] was 4.33 z-score, the binding signal [2] was 4.88 z-score and the binding signal [3] was 2.2 z-score.
In the case of TTAAAGAGGAAGTGGAGAGA, the binding signal [1] is reported as 6.29 z-score, the binding signal [2] is reported as 6.7 z-score and the binding signal [3] is reported as 3.32 z-score.
AGAAAGAGGAAGTCATATGG was tested, and the binding signal [1] was 7.97 z-score, the binding signal [2] was 7.33 z-score and the binding signal [3] was 4.18 z-score.
Sequence AAAGAGGGGAACTGGAGATG has a binding signal [1] of 1.77 z-score, a binding signal [2] of 2.06 z-score and a binding signal [3] of 0.648 z-score.
In the case of AAAATCAGGAAGTGTTTGAG, the binding signal [1] is reported as 6.3 z-score, the binding signal [2] is reported as 6.53 z-score and the binding signal [3] is reported as 3.18 z-score.
Sequence ACAAAAAGGAACTGCGCCCC has a binding signal [1] of 1.46 z-score, a binding signal [2] of 1.72 z-score and a binding signal [3] of 0.971 z-score.
AGAGGGAGGAAGTGACAGTA showed a binding signal [1] of 3.9 z-score, a binding signal [2] of 3.73 z-score and a binding signal [3] of 2.71 z-score.
Work on GGAGGAGGGAAGTGGAAAGA yielded a binding signal [1] of 2.66 z-score, a binding signal [2] of 2.47 z-score and a binding signal [3] of 1.81 z-score.
TGAAAGAGGAAGTGCGACCA showed a binding signal [1] of 7.37 z-score, a binding signal [2] of 6.98 z-score and a binding signal [3] of 3.76 z-score.
AGTTGGAGGAAGTGGCACTT was tested, and the binding signal [1] was 2.78 z-score, the binding signal [2] was 3.15 z-score and the binding signal [3] was 2.18 z-score.
With AGAAAGAGGAACTGAGAAAG the binding signal [1] was 6.49 z-score, the binding signal [2] was 6.87 z-score and the binding signal [3] was 2.48 z-score.
AATATAAGGAAGTGGGCCAG showed a binding signal [1] of 4.23 z-score, a binding signal [2] of 4.77 z-score and a binding signal [3] of 2.06 z-score.
With CTAAACAGGAAGTGAGGATG the binding signal [1] was 5.58 z-score, the binding signal [2] was 6.3 z-score and the binding signal [3] was 5.72 z-score.
Work on ATAAAGAGGAAGTGGGTATG yielded a binding signal [1] of 7.65 z-score, a binding signal [2] of 7.19 z-score and a binding signal [3] of 4.04 z-score.
In the case of ATATGGAGGAAGTGGAACCC, the binding signal [1] is reported as 3.92 z-score, the binding signal [2] is reported as 3.56 z-score and the binding signal [3] is reported as 2.35 z-score.
In the case of CAAATGAGGAGCTGATGCGG, the binding signal [1] is reported as -0.502 z-score, the binding signal [2] is reported as -0.111 z-score and the binding signal [3] is reported as -0.371 z-score.
In the case of CAAATGAGGAACTGCTGCGG, the binding signal [1] is reported as 5.83 z-score, the binding signal [2] is reported as 6.07 z-score and the binding signal [3] is reported as 2.62 z-score.
For TGAAAGAGGAAGTGGATAGG, the binding signal [1] was 7.5 z-score, the binding signal [2] was 7.41 z-score and the binding signal [3] was 4.14 z-score.
AGAAAAAGGAACTGTGCCCC was tested, and the binding signal [1] was 3.05 z-score, the binding signal [2] was 3.05 z-score and the binding signal [3] was 0.67 z-score.
Work on GAAAACACGAAGTCCCATAG yielded a binding signal [1] of 0.299 z-score, a binding signal [2] of 0.815 z-score and a binding signal [3] of 0.537 z-score.
Sequence AGGTAGAGGAAGTAGACTAG has a binding signal [1] of 4.13 z-score, a binding signal [2] of 4.09 z-score and a binding signal [3] of 2.18 z-score.
Sequence AGGAAGAGGAAGTGCTGGGG has a binding signal [1] of 6.11 z-score, a binding signal [2] of 6.55 z-score and a binding signal [3] of 3.72 z-score.
In the case of GAAAACAGGAAGTCCCACAG, the binding signal [1] is reported as 7.48 z-score, the binding signal [2] is reported as 7.09 z-score and the binding signal [3] is reported as 4.43 z-score.
Sequence AAAAAGAGGAAGTGGTTGTC has a binding signal [1] of 8.71 z-score, a binding signal [2] of 7.63 z-score and a binding signal [3] of 4.63 z-score.
In the case of AAAAAAAGGAAATGGCTAGA, the binding signal [1] is reported as 3.02 z-score, the binding signal [2] is reported as 2.51 z-score and the binding signal [3] is reported as 2.01 z-score.
Sequence GATAAGTGGAAGTCCTCTGT has a binding signal [1] of 1.98 z-score, a binding signal [2] of 1.84 z-score and a binding signal [3] of 1.17 z-score.
With AGGATGAGGAAGTGCAGTCT the binding signal [1] was 5.97 z-score, the binding signal [2] was 6.42 z-score and the binding signal [3] was 3.28 z-score.
Work on TCCAGGAGGAACTACTGTGT yielded a binding signal [1] of 2.59 z-score, a binding signal [2] of 2.62 z-score and a binding signal [3] of 1.04 z-score.
AGGAAAAGGAAGTCTCCCCA gave a binding signal [1] of 2.85 z-score, a binding signal [2] of 2.81 z-score and a binding signal [3] of 2.66 z-score.
Sequence AGAGACGGGAAGTGAGACAA has a binding signal [1] of 2.56 z-score, a binding signal [2] of 2.56 z-score and a binding signal [3] of 2.29 z-score.
For TGAAAGATGAAGTGCAACCA, the binding signal [1] was 0.288 z-score, the binding signal [2] was 0.364 z-score and the binding signal [3] was -0.676 z-score.
TGAAAGAGGAAGTGCAACGA was tested, and the binding signal [1] was 7.57 z-score, the binding signal [2] was 7.37 z-score and the binding signal [3] was 3.85 z-score.
AGAGAGGGGAAGTAACTGTC was tested, and the binding signal [1] was 5.25 z-score, the binding signal [2] was 5.04 z-score and the binding signal [3] was 2.38 z-score.
Work on CAGGAGAGGAACTGAGAATG yielded a binding signal [1] of 1.76 z-score, a binding signal [2] of 2.38 z-score and a binding signal [3] of 0.996 z-score.
Work on AAGAAAAGGAAGTGGAAAAC yielded a binding signal [1] of 4.07 z-score, a binding signal [2] of 3.53 z-score and a binding signal [3] of 2.45 z-score.
Sequence TGATAGAGGAAGTGCAACCA has a binding signal [1] of 4.92 z-score, a binding signal [2] of 5.94 z-score and a binding signal [3] of 2.88 z-score.
For AAAATGAGGAAATGAGGTTT, the binding signal [1] was 5.58 z-score, the binding signal [2] was 5.85 z-score and the binding signal [3] was 2.48 z-score.
Work on CAGAAAAGGAAGTGCAATAA yielded a binding signal [1] of 3.72 z-score, a binding signal [2] of 3.07 z-score and a binding signal [3] of 2.5 z-score.
TTGTTGAGGAAGTGGGTGTT was tested, and the binding signal [1] was 3.93 z-score, the binding signal [2] was 3.95 z-score and the binding signal [3] was 2.26 z-score.
AGAAAGGGGAAGTGATTTGT was tested, and the binding signal [1] was 8.13 z-score, the binding signal [2] was 7.28 z-score and the binding signal [3] was 3.67 z-score.
TGAAAGAGGAAGTTCAACCA gave a binding signal [1] of 7.44 z-score, a binding signal [2] of 7.15 z-score and a binding signal [3] of 3.47 z-score.
In the case of AAAAGAGGGAAGTGACATTC, the binding signal [1] is reported as 5.89 z-score, the binding signal [2] is reported as 6.21 z-score and the binding signal [3] is reported as 2.08 z-score.
CCATGGAGGAACTGAGAGGG was tested, and the binding signal [1] was 1.46 z-score, the binding signal [2] was 1.88 z-score and the binding signal [3] was 0.576 z-score.
CAAAAGAAGAAGTGCTGGAT was tested, and the binding signal [1] was 3.25 z-score, the binding signal [2] was 3.52 z-score and the binding signal [3] was 1.12 z-score.
AGGAGAAGGAAGTGGGAAGA gave a binding signal [1] of 3.01 z-score, a binding signal [2] of 2.88 z-score and a binding signal [3] of 1.91 z-score.
With AAATTAAGGAAGTGCCTCTT the binding signal [1] was 6.87 z-score, the binding signal [2] was 6.59 z-score and the binding signal [3] was 2.79 z-score.
In the case of AAAAAAAGGAACTGGCTATA, the binding signal [1] is reported as 4.33 z-score, the binding signal [2] is reported as 4.16 z-score and the binding signal [3] is reported as 1.69 z-score.
For TGGAAGAGGAAGTGGCACTG, the binding signal [1] was 5.78 z-score, the binding signal [2] was 6.56 z-score and the binding signal [3] was 3.4 z-score.
For TGAAACAGGAAGTGTGTGTT, the binding signal [1] was 6.39 z-score, the binding signal [2] was 6.42 z-score and the binding signal [3] was 5.28 z-score.
In the case of CAAAACAGGAAGTGATGTTC, the binding signal [1] is reported as 7.97 z-score, the binding signal [2] is reported as 7.52 z-score and the binding signal [3] is reported as 5.73 z-score.
In the case of GAAAACAGGATGTCCCATAG, the binding signal [1] is reported as 1.76 z-score, the binding signal [2] is reported as 2.31 z-score and the binding signal [3] is reported as 2.29 z-score.
In the case of GAGATGAGGAAGTGCTACTA, the binding signal [1] is reported as 5.67 z-score, the binding signal [2] is reported as 6.3 z-score and the binding signal [3] is reported as 2.39 z-score.
GAAAGCAGGAAGTGTGTTAT showed a binding signal [1] of 4.63 z-score, a binding signal [2] of 4.53 z-score and a binding signal [3] of 4.08 z-score.
With GAAAAGAGGAAGTGACTGCA the binding signal [1] was 8.32 z-score, the binding signal [2] was 7.55 z-score and the binding signal [3] was 4.11 z-score.
GGAAAGAGGAAGTCAAACTA gave a binding signal [1] of 7.68 z-score, a binding signal [2] of 7.38 z-score and a binding signal [3] of 4.45 z-score.
TAAATGAGGAAGTGAAGAAA gave a binding signal [1] of 7.86 z-score, a binding signal [2] of 7.06 z-score and a binding signal [3] of 4.58 z-score.
Sequence AAAAGGAGGAAGTGGTTACA has a binding signal [1] of 6.37 z-score, a binding signal [2] of 6.77 z-score and a binding signal [3] of 3.21 z-score.
AAAAACAGGAAGTCAAAGGA was tested, and the binding signal [1] was 7.11 z-score, the binding signal [2] was 7.03 z-score and the binding signal [3] was 4.55 z-score.
With CGAAAGGGGAAGTGCTAAAA the binding signal [1] was 6.97 z-score, the binding signal [2] was 6.83 z-score and the binding signal [3] was 3.48 z-score.
